Source: the supplement of paper PMC9588766
Counter-ions that a name gives are not always drawn. Whole data set: some 1,900 compounds, median “cell viability of compound + 1 nM pemigatinib relative to pemigatinib-only (DMSO) wells” near 0.95, cut for the lowest 2% near 0.22. The list shows a part of the results.

System: PDC-DUC18828
Experiment: cell viability of compound + 1 nM pemigatinib relative to pemigatinib-only (DMSO) wells (fraction); PDC-DUC18828 is a patient-derived cholangiocarcinoma cell line; higher = less growth inhibition
Settings: first compound 1 µM; pemigatinib concentration 1 nM; 72 h
Procedure: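 Selleck Bioactive library screen in the patient-derived FGFR2 fusion-positive ICC cell line PDC-DUC18828 (500 cells/well). Each compound was tested at 1 uM with 1 nM pemigatinib, in triplicate, for 72 h. Viability was read by CellTiter-Glo and normalised to plate DMSO controls. Value is the paper's averaged normalised viability.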

| SMILES | cell viability |
| --- | --- |
| Cc1c(-c2ccccc2)oc2c(C(=O)OCCN3CCCCC3)cccc2c1=O [Flavoxate HCl] + CCN1C(=O)N(c2c(F)c(OC)cc(OC)c2F)Cc2cnc3[nH]c(CN4CCOCC4)cc3c21 [pemigatinib] | 0.975 |
| CCN(CC)CCOC(=O)c1ccc(N)cc1Cl [Chloroprocaine HCl] + CCN1C(=O)N(c2c(F)c(OC)cc(OC)c2F)Cc2cnc3[nH]c(CN4CCOCC4)cc3c21 [pemigatinib] | 1.04 |
| C#Cc1cccc(Nc2ncnc3cc(OCCOC)c(OCCOC)cc23)c1 [Erlotinib HCl (OSI-744)] + CCN1C(=O)N(c2c(F)c(OC)cc(OC)c2F)Cc2cnc3[nH]c(CN4CCOCC4)cc3c21 [pemigatinib] | 0.838 |
| C#Cc1cccc(Nc2ncnc3cc(OCCOC)c(OCCOC)cc23)c1 [Erlotinib] + CCN1C(=O)N(c2c(F)c(OC)cc(OC)c2F)Cc2cnc3[nH]c(CN4CCOCC4)cc3c21 [pemigatinib] | 0.817 |
| COc1ccc(Cn2ccc3ccc(C(=O)NO)cc32)cc1 + CCN1C(=O)N(c2c(F)c(OC)cc(OC)c2F)Cc2cnc3[nH]c(CN4CCOCC4)cc3c21 [pemigatinib] | 0.949 |
| CC#CC(=O)N1CC[C@@H](n2c(=O)n(-c3ccc(Oc4ccccc4)cc3)c3c(N)ncnc32)C1 + CCN1C(=O)N(c2c(F)c(OC)cc(OC)c2F)Cc2cnc3[nH]c(CN4CCOCC4)cc3c21 [pemigatinib] | 0.853 |
| Cc1onc(-c2ccccc2Cl)c1C(=O)N[C@@H]1C(=O)N2[C@@H]1SC(C)(C)[C@@H]2C(=O)O [Cloxacillin Sodium] + CCN1C(=O)N(c2c(F)c(OC)cc(OC)c2F)Cc2cnc3[nH]c(CN4CCOCC4)cc3c21 [pemigatinib] | 0.952 |
| NC(=O)c1cnc(N[C@@H]2CCCC[C@@H]2N)nc1Nc1cccc(-n2nccn2)c1 + CCN1C(=O)N(c2c(F)c(OC)cc(OC)c2F)Cc2cnc3[nH]c(CN4CCOCC4)cc3c21 [pemigatinib] | 0.825 |
| CN[C@@H]1[C@H](O)[C@H](NC)[C@H]2O[C@@]3(O)C(=O)C[C@@H](C)O[C@H]3O[C@@H]2[C@H]1O [Spectinomycin HCl] + CCN1C(=O)N(c2c(F)c(OC)cc(OC)c2F)Cc2cnc3[nH]c(CN4CCOCC4)cc3c21 [pemigatinib] | 0.958 |
| NS(=O)(=O)c1cc2c(cc1Cl)NC(C(Cl)Cl)NS2(=O)=O (centres undefined) [Trichlormethiazide] + CCN1C(=O)N(c2c(F)c(OC)cc(OC)c2F)Cc2cnc3[nH]c(CN4CCOCC4)cc3c21 [pemigatinib] | 0.952 |
| C[S+]([O-])c1ccc(-c2nc(-c3ccc(F)cc3)c(-c3ccncc3)[nH]2)cc1 (centres undefined) + CCN1C(=O)N(c2c(F)c(OC)cc(OC)c2F)Cc2cnc3[nH]c(CN4CCOCC4)cc3c21 [pemigatinib] | 1.05 |
| COc1cc2c(Oc3ccc(NC(=O)C4(C(=O)Nc5ccc(F)cc5)CC4)cc3F)ccnc2cc1OCCCN1CCOCC1 + CCN1C(=O)N(c2c(F)c(OC)cc(OC)c2F)Cc2cnc3[nH]c(CN4CCOCC4)cc3c21 [pemigatinib] | 0.679 |
| COc1ccccc1Oc1c(NS(=O)(=O)c2ccc(C(C)(C)C)cc2)nc(-c2ncccn2)nc1OCCO [Bosentan] + CCN1C(=O)N(c2c(F)c(OC)cc(OC)c2F)Cc2cnc3[nH]c(CN4CCOCC4)cc3c21 [pemigatinib] | 0.951 |
| COc1ccccc1Oc1c(NS(=O)(=O)c2ccc(C(C)(C)C)cc2)nc(-c2ncccn2)nc1OCCO [Bosentan Hydrate] + CCN1C(=O)N(c2c(F)c(OC)cc(OC)c2F)Cc2cnc3[nH]c(CN4CCOCC4)cc3c21 [pemigatinib] | 1 |
| CN1CCC[C@@H]1Cc1c[nH]c2ccc(CCS(=O)(=O)c3ccccc3)cc12 [Eletriptan HBr] + CCN1C(=O)N(c2c(F)c(OC)cc(OC)c2F)Cc2cnc3[nH]c(CN4CCOCC4)cc3c21 [pemigatinib] | 0.957 |
| C=C1/C(=C\C=C2/CCC[C@]3(C)[C@@H]([C@H](C)CCCC(C)C)CC[C@@H]23)C[C@@H](O)C[C@@H]1O [Alfacalcidol] + CCN1C(=O)N(c2c(F)c(OC)cc(OC)c2F)Cc2cnc3[nH]c(CN4CCOCC4)cc3c21 [pemigatinib] | 1.01 |
| O=C(N[C@H](CO)[C@H](O)c1ccc([N+](=O)[O-])cc1)C(Cl)Cl [Chloramphenicol] + CCN1C(=O)N(c2c(F)c(OC)cc(OC)c2F)Cc2cnc3[nH]c(CN4CCOCC4)cc3c21 [pemigatinib] | 0.947 |
| O=C(O)CCNC(=O)c1ccccc1 [Betamipron] + CCN1C(=O)N(c2c(F)c(OC)cc(OC)c2F)Cc2cnc3[nH]c(CN4CCOCC4)cc3c21 [pemigatinib] | 0.989 |
| CO[C@H]1/C=C\C=C(/C)C(=O)NC2=CC(=O)C(NCCN(C)C)=C(C[C@@H](C)C[C@H](OC)[C@H](O)[C@@H](C)/C=C(\C)[C@@H]1OC(N)=O)C2=O [17-DMAG (Alvespimycin) HCl] + CCN1C(=O)N(c2c(F)c(OC)cc(OC)c2F)Cc2cnc3[nH]c(CN4CCOCC4)cc3c21 [pemigatinib] | 0.359 |
| CCC[C@@H]1C[C@@H](C(=O)N[C@@H]([C@H]2O[C@H](SC)[C@H](O)[C@@H](O)[C@H]2O)[C@H](C)Cl)N(C)C1 [Clindamycin] + CCN1C(=O)N(c2c(F)c(OC)cc(OC)c2F)Cc2cnc3[nH]c(CN4CCOCC4)cc3c21 [pemigatinib] | 0.907 |
| CCC[C@@H]1C[C@@H](C(=O)N[C@@H]([C@H]2O[C@H](SC)[C@H](O)[C@@H](O)[C@H]2O)[C@H](C)Cl)N(C)C1 [Clindamycin HCl] + CCN1C(=O)N(c2c(F)c(OC)cc(OC)c2F)Cc2cnc3[nH]c(CN4CCOCC4)cc3c21 [pemigatinib] | 0.935 |
| CC1=NN(c2ccccc2)C(=O)C1 [Edaravone] + CCN1C(=O)N(c2c(F)c(OC)cc(OC)c2F)Cc2cnc3[nH]c(CN4CCOCC4)cc3c21 [pemigatinib] | 1 |
| CCOc1ccc2ccccc2c1C(=O)N[C@@H]1C(=O)N2[C@@H]1SC(C)(C)[C@@H]2C(=O)O [Nafcillin Sodium] + CCN1C(=O)N(c2c(F)c(OC)cc(OC)c2F)Cc2cnc3[nH]c(CN4CCOCC4)cc3c21 [pemigatinib] | 0.938 |
| CCN(CC)CCNC(=O)c1cc(Cl)c(N)cc1OC [MetoclopraMide HCl] + CCN1C(=O)N(c2c(F)c(OC)cc(OC)c2F)Cc2cnc3[nH]c(CN4CCOCC4)cc3c21 [pemigatinib] | 0.959 |
